Test results reported in PubChem BioAssay AID485344 (National Center for Advancing Translational Sciences (NCATS), 2010).
The campaign covered roughly 340,000 compounds. About 6,900 (2%) were called active. No stated cut-off is given here; in the data, active means inhibition above about 30%; inactive means below that, where a call was filed. This is a selection; strong and weak results do not stand in their true shares. The source gives no active or inactive call for entries shown without one.

What follows are compounds tested against D(2) dopamine receptor (Homo sapiens) (UniProt P14416) (assay: HTS Assay for Allosteric Antagonists of the Human D2 Dopamine Receptor: Primary Screen for Antagonists). Details: HEK293 TREx D2 cells, calcium flux, dopamine EC80; at 10 µM; stronger effect = higher value.
In short: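 Inhibition of EC80 dopamine-driven calcium flux, recorded kinetically, defines activity here; cells are a tetracycline-induced HEK293 T-REx line expressing force-coupled D2.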
Further: 0% is about no effect.

Sequence of UniProt P14416 (P14416 whole entry, looked up): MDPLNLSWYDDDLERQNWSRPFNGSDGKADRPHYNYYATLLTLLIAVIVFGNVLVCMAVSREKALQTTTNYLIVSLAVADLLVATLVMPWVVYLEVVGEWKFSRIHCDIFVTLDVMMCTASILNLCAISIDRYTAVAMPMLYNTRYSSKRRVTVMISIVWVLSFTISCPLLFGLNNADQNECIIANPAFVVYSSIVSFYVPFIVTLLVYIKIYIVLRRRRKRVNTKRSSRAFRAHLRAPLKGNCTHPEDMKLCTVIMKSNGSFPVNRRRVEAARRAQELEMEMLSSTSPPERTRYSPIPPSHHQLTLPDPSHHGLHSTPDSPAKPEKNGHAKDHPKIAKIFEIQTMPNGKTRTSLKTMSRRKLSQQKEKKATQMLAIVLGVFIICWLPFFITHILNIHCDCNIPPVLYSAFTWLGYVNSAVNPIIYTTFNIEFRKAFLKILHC

Compound | inhibition
CCC(C)n1c(=N)c(C(=O)NC2CCCCC2)cc2c(=O)n3cc(C)ccc3nc21 (centres undefined) | -27.5%
CCCc1cc(=O)oc2c3c(cc(OCC(=O)N[C@@H](C)C(=O)O)c12)OC(C)(C)CC3 | active: 32.9%
Cc1cccc(C(=O)NCc2cn3cccc(C)c3n2)c1 | 2.77%
CC(C)c1ccc(Cc2cnc(NC(=O)c3ccc4c(c3)CC(c3ccccc3)OC4=O)s2)cc1 (centres undefined) | 13.1%
O=c1cc(N2CCN(c3ccc(F)cc3)CC2)[nH]c(=O)n1-c1cccc(Br)c1 | -14.8%
COc1ccc(N(C(=O)c2cc(OC)c(OC)c(OC)c2)S(=O)(=O)c2ccc(C)cc2)cc1 | 7.56%
Cn1cc(-c2cc3n(n2)CCC(=O)N3CC(=O)NCc2ccccc2)c2ccccc21 | -12.3%
CN(C)C1(CNC(=O)COc2cccc(Cl)c2)CCCCC1 | -4.2%
Cc1ccccc1C(=O)Nc1ccc2nc(SCC(=O)N(C)c3ccccc3)sc2c1 | -18.2%
Cc1cccc(Cn2c(SCc3ccc(C(=O)NCc4cccs4)cc3)nc3ccncc32)c1 | -1.25%
Cc1ccc(Nc2c(-c3cccc(Cl)c3)nc3cccc(C)n23)cc1 | -0.194%
Cc1ccc(NC(=O)CSc2nc(=O)n(CCN3CCOCC3)c3c2CCC3)cc1Cl | 9.65%
CCC(=O)N1c2ccccc2CC1C(=O)NCCN1CCN(c2ccccc2F)CC1 (centres undefined) | 18.9%
Cn1c(=O)nc2n(-c3ccc(Br)cc3)c3cccc(Cl)c3cc-2c1=O | 3.17%
CCCc1noc(-c2ccc(NCc3ccccc3OC)c([N+](=O)[O-])c2)n1 | 18.8%
Cc1ccc(C)c(N2CCN(S(=O)(=O)c3ccc(C4CCCCC4)cc3)CC2)c1 | 4.12%
CC(C)(C)OC(=O)N1CCC(c2c(C(=O)NCc3ccccn3)cnn2-c2ccccc2Cl)CC1 | 7.22%
Cc1[nH]c2ccccc2c1SCCNC(=O)c1ccc(F)cc1 | -22.7%
CC(C)c1ccc(NC(=O)CSC2=Nc3ccccc3C3=NC(CC(=O)NCCc4ccccc4)C(=O)N23)cc1 (centres undefined) | -23.3%
COc1ccc(Cl)cc1NC(=O)c1c(NCc2cccs2)sc2c1CCC(C)C2 (centres undefined) | -0.67%
CCOc1ccccc1NC(=O)CSc1nc(-c2cccs2)cc(C(F)(F)F)n1 | 8.37%
O=C(Nc1cc(-c2nc3ccccc3o2)ccc1Cl)c1cc([N+](=O)[O-])ccc1N1CCOCC1 | 6.57%
COc1cccc(CNC(=O)C2CCN(c3ncnc4c3nc3n4CCCCC3)CC2)c1 | -0.192%
Cc1cc(-c2ccc(C)c(S(=O)(=O)NCCc3ccccc3)c2)on1 | 8.51%
COc1ccc2c(c1)c(CC(=O)Nc1cc(C)c(OC)c(C)c1)c(C)n2C(=O)c1ccc(Cl)cc1 | -3.21%

Compound | inhibition
CC(=O)c1ccc(OC(=O)c2c(-c3ccccc3Cl)noc2C)cc1 | 0.182%
Cn1nc(C(=O)Nc2cccc(C(F)(F)F)c2)c2c1-c1ccccc1S(=O)(=O)C2 | 0.874%
O=C(COc1ccc(Cl)cc1Cl)Nc1ccc(C(=O)OC2CCCCC2)cc1 | -0.481%
CCCN(CCC)S(=O)(=O)c1ccc(C(=O)N2CCn3c4c(c5cc(C)ccc53)CCCC42)cc1 (centres undefined) | 3.12%
CCOc1ccc(NS(=O)(=O)c2ccc3[nH]cc(C(=O)NCCc4ccccc4)c(=O)c3c2)cc1 | 1.39%
COc1ccccc1Nc1ncnc2c1nc1n2CCCCC1 | 14.7%
Cn1c(SCC(=O)Nc2ccccc2F)nc2c([nH]c3ccccc32)c1=O | -9.49%
CCc1ccccc1NC(=O)CSc1nccn1C | 3.11%
CCOC(=O)c1cc(OC(=O)c2cc(Cl)ccc2OC)n(-c2ccccc2)n1 | 9.1%
CCC(C(=O)O)N1C(=O)c2ccccc2C1=O (centres undefined) | active: 37%
CCc1ccc(S(=O)(=O)c2nnn3c2nc(NCCC(C)C)c2cc(Cl)ccc23)cc1 | -9.87%
Cn1nc(C(=O)Nc2ccc(Br)cc2)cc1C(=O)Nc1ccc(Br)cc1 | active: 38.3%
COc1cccc(-n2cc(CNCc3cn(C)nc3-c3ccccc3F)cn2)c1 | active: 84.7%
Cc1cccc(N2CCN(C(=O)c3ccc4c(c3)CCN4S(=O)(=O)c3ccccc3)CC2)c1C | 5.75%
CCc1ccc(Nc2nc3ccccc3c3nnc(C)n23)cc1 | 1.96%
CC(=O)c1cc(-c2ccccc2)n(CC(=O)Nc2ccc(C)cc2C)c1C | -9.27%
Nc1nonc1-c1nc2ccccc2n1CC(=O)Nc1ccc(F)cc1 | 1.39%
CCn1c(SC(C)C(=O)NCC2CCCO2)nc2ccccc21 (centres undefined) | active: 31%
Cc1ccc(S(=O)(=O)c2cn(CC(=O)Nc3ccccc3)c3cc4c(cc3c2=O)OCO4)cc1 | 22%
Cc1ccc(-c2nc(CS(=O)CC(=O)O)c(C)o2)cc1 (centres undefined) | -12.9%
CCN1CCN(c2ncc3c(n2)CCN(Cc2ccc(C)s2)C3)CC1 | -10.9%
Cc1cccc(CCNC(=O)c2nc(-c3ccc(Cl)cc3)n3c2CCCCC3)c1 | -4.45%
COc1ccc(Br)cc1CNC(=O)c1cc2c(=O)n(C)c3ccccc3c2s1 | -16.1%
CCn1c2c(c(=O)n3ncc(C(=O)Nc4ccc(F)c(Cl)c4)c13)CN(Cc1ccc(OC)cc1)CC2 | 18.4%
